Measured values: publication PMC4336329 (PLoS ONE, 2015)
Out of some 310,000 compounds screened, about 14,000 (4.5%) showed an effect of 50% or more. Effects have a minus sign here. Some of the results follow.

These compounds were tested against human ether-à-go-go-related gene (hERG) potassium channel (human, UniProt Q12809) (assay: primary screen, population patch clamp on CHO cells stably expressing hERG).
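Also: peak tail current of the secondary pulse compared with the same well before compound.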

human ether-à-go-go-related gene (hERG) potassium channel, sequence (Q12809 whole entry, looked up): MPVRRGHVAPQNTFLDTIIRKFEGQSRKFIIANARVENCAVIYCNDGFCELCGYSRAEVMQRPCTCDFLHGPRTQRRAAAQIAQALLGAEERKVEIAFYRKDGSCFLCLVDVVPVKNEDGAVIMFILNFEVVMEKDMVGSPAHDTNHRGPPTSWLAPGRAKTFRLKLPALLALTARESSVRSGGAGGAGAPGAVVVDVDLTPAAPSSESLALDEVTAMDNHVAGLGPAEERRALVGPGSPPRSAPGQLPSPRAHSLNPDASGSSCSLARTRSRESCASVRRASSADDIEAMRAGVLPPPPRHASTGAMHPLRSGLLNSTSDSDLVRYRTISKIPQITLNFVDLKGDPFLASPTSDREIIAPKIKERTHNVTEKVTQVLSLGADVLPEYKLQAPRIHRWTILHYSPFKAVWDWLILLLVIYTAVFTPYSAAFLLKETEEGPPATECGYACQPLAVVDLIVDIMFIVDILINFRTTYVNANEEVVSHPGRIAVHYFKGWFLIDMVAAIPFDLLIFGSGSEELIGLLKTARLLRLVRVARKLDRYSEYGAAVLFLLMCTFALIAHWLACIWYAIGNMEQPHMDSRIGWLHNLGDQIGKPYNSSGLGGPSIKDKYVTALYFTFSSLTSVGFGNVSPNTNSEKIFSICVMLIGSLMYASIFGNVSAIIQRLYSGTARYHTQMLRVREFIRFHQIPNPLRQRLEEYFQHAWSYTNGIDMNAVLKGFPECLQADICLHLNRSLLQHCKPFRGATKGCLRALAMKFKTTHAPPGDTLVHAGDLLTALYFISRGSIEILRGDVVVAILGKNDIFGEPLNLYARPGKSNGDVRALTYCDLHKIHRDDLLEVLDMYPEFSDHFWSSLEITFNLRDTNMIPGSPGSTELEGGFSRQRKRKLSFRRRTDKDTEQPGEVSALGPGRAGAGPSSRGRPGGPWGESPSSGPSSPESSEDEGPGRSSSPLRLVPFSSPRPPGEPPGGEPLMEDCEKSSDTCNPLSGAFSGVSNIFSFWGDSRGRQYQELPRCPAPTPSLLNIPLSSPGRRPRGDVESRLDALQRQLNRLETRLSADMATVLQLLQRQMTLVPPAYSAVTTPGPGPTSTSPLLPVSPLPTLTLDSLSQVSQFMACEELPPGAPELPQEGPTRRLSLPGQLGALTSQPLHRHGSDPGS

Compared with `Cc1c(C(=O)N2CCCCC2)nn(-c2ccc(Cl)cc2)c(=O)c1C#N`, `O=C(NC1=NCCS1)C1CC(=O)N(c2ccc(Cl)cc2)C1` (stereo not shown) is higher in “hERG current change (%, negative = inhibition) at 10uM” value: -17.5% for the first, 8.41% for the second.

First: CCN(CC)S(=O)(=O)c1cccc(C(=O)N/N=C/c2ccc(O)c(O)c2O)c1
Second: Cc1cc(/C=N\NC(=O)c2cccs2)c(C)n1-c1ccc2ncccc2c1
The “hERG current change (%, negative = inhibition) at 10uM” value of the first is higher: 11.4% for the first, 3.27% for the second.

Going from `Clc1ccc(Sc2ccc(/C=N/n3cnnc3)o2)cc1` to `Oc1ccc(N=Nc2n[nH]c(-c3ccc(Cl)cc3)n2)cc1`, the “hERG current change (%, negative = inhibition) at 10uM” value rises from -31.4% to 6.49%.

Going from `COc1cccc(NC(=O)C2CCCN(S(C)(=O)=O)C2)c1` (stereo not shown) to `CCOc1ccc(CCNC(=O)C2CCN(S(=O)(=O)CC)CC2)cc1OCC`, the “hERG current change (%, negative = inhibition) at 10uM” value falls from 26.4% to -4.28%.

Going from `COc1ccc(S(=O)(=O)NNC(=O)Nc2ccc(F)cc2F)c(OC)c1` to `COc1ccc2c(c1)CC1(CN2C)C(=O)NC(=O)N(c2ccc(F)cc2)C1=O` (stereo not shown), the “hERG current change (%, negative = inhibition) at 10uM” value rises from 0.893% to 4.23%.

First: Cc1ccc(NC(=O)CCSCCc2ccccn2)cc1
Second: O=C(CN(c1ccccn1)S(=O)(=O)c1ccccc1)Nc1ccccc1
The “hERG current change (%, negative = inhibition) at 10uM” value of the first is lower: 3.83% for the first, 5.51% for the second.

Compared with `CC[N+](CC)(CC=C(C)C)CC(=O)OC.[Cl-]`, `CCOC(=O)c1c(S(=O)(=O)NCC(=O)NCc2ccccc2)c(C)n(C)c1C` is lower in “hERG current change (%, negative = inhibition) at 10uM” value: 20.8% for the first, 8.56% for the second.

Going from `COc1ccc(/C=C2\SC(=S)N(CCCC(=O)N3CCN(C)CC3)C2=O)cc1` to `COc1ccc(C(=O)N/C(=C\c2cn(C)c3ccccc23)C(=O)N2CCOCC2)cc1`, the “hERG current change (%, negative = inhibition) at 10uM” value rises from -24.4% to -10.9%.

Compared with `O=C(CSc1nc2ccccc2[nH]1)c1ccco1`, `O=C(Cn1nnc(-c2ccccc2)n1)NCc1ccco1` is higher in “hERG current change (%, negative = inhibition) at 10uM” value: -4.74% for the first, 7.58% for the second.

Going from `COc1ccc(C2Sc3nncn3N2Cc2ccc(C#N)cc2)cc1` (stereo not shown) to `COc1ccc(C2C=C(c3ccccc3)Nc3nc(NC(C)=O)nn32)cc1` (stereo not shown), the “hERG current change (%, negative = inhibition) at 10uM” value falls from -8.74% to -22.9%.

First: Cc1sc(NC(=O)CSc2ncn(-c3ccccc3)n2)nc1-c1ccccc1
Second: Nc1nc(CSC(=S)N2CCN(c3ccccc3)CC2)nc(Nc2ccccc2)n1
The “hERG current change (%, negative = inhibition) at 10uM” value of the first is lower: -0.44% for the first, 0.151% for the second.

Going from `Cn1nccc1C(=O)Nc1ccc2c(c1)OCCO2` to `CCCCN(C(=O)c1ccc2c(c1)OCO2)C1CCS(=O)(=O)C1` (stereo not shown), the “hERG current change (%, negative = inhibition) at 10uM” value rises from -6.55% to 5.61%.

Compared with `COc1cccc(/C=C2/Oc3ccccc3N(CC(=O)NCC3CCCO3)C2=O)c1` (stereo not shown), `O=C(Cn1ccc([N+](=O)[O-])n1)NCC1CCCO1` (stereo not shown) is higher in “hERG current change (%, negative = inhibition) at 10uM” value: 14% for the first, 17.9% for the second.

Compared with `CC(C)(C)OC(=O)[C@H](NC(=O)OCc1ccccc1)c1ccccc1`, `O=C(CNC(=O)c1ccc(Oc2ccccc2)cc1)OCc1ccc(Br)cc1` is higher in “hERG current change (%, negative = inhibition) at 10uM” value: -28.8% for the first, -0.714% for the second.

Going from `O=C(CN1CCN(C(=O)C2CCCO2)CC1)Nc1ccc(F)cc1` (stereo not shown) to `COc1cc(/C=C/C(=O)OCC(=O)Nc2cc(C(F)(F)F)ccc2N2CCOCC2)ccc1O`, the “hERG current change (%, negative = inhibition) at 10uM” value rises from -66.1% to -0.592%.

First: CCC(C)NC(=O)c1ccc(NS(=O)(=O)c2ccc3[nH]c(=O)[nH]c3c2)cc1 (stereo not shown)
Second: Cc1cc(NS(=O)(=O)c2ccc(NC(=O)c3ccc(Cl)cc3Cl)cc2)no1
The “hERG current change (%, negative = inhibition) at 10uM” value of the first is lower: 10.1% for the first, 24.4% for the second.

Going from `COc1ccc(COc2ncnc3ccc(Br)cc23)cc1F` to `COc1ccc(CCn2c(=O)[nH]c3cc(C(=O)NCCN4CCOCC4)ccc3c2=O)cc1OC`, the “hERG current change (%, negative = inhibition) at 10uM” value rises from -23.1% to 0.353%.

Compared with `O=C(NN1C(=O)C2C3C=CC(C4CC34)C2C1=O)c1ccc(Cl)c(Cl)c1` (stereo not shown), `O=C(NNS(=O)(=O)c1ccc(Cl)cc1Cl)c1cc2ncc(C(F)(F)F)cc2s1` is higher in “hERG current change (%, negative = inhibition) at 10uM” value: 14.9% for the first, 15.7% for the second.

Going from `CCC(Sc1nc2ccccc2o1)C(=O)O` (stereo not shown) to `CC(C)CN(C(=O)CSc1nnnn1-c1ccccc1)c1c(N)n(CC(C)C)c(=O)[nH]c1=O`, the “hERG current change (%, negative = inhibition) at 10uM” value rises from -4.78% to 14.5%.

Going from `CC(NS(=O)(=O)c1ccc(Cl)cc1)C(c1cccs1)N1CCN(C)CC1` (stereo not shown) to `CN(CC1CCCN(CCc2ccc(Cl)cc2)C1)C(=O)c1ccc2nc[nH]c2c1` (stereo not shown), the “hERG current change (%, negative = inhibition) at 10uM” value rises from -43.7% to -34.1%.

First: Cc1cc(S(=O)(=O)NC2CCCCC2)ccc1-n1cnnn1
Second: CCCc1cc(Nc2ccccc2OCC)n2ncnc2n1
The “hERG current change (%, negative = inhibition) at 10uM” value of the first is higher: 23.2% for the first, -21.9% for the second.

With `NC(=O)[C@H](Cc1cc2ccccc2s1)NC(=O)[C@@H]1CC2(CC(c3cccc(NC(=O)[C@@H]4CCC(=O)N4)c3)=NO2)CN1C(=O)/C=C/Sc1ccccc1` (stereo partly shown) the “hERG current change (%, negative = inhibition) at 10uM” value was 14.1%.
